The text below walks through data of paper PMC10641269.

Protein sequences, listed by entry. Tags and fused reporters are not part of them.
UniProt Q64JB6: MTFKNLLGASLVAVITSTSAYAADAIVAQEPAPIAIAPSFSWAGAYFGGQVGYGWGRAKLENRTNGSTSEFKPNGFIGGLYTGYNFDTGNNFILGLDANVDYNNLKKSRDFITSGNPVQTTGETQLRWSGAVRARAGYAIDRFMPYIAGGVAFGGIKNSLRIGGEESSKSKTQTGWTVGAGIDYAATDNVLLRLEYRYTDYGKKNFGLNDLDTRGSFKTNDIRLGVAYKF
UniProt Q99836: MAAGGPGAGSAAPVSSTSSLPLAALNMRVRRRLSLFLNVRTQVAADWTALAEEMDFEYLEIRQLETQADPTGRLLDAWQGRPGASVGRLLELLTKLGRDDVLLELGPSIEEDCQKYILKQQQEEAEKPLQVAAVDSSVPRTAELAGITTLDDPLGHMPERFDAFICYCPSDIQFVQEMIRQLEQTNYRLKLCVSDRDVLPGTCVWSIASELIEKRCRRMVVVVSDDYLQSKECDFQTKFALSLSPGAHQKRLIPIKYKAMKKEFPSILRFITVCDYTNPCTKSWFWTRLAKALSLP
UniProt P58753: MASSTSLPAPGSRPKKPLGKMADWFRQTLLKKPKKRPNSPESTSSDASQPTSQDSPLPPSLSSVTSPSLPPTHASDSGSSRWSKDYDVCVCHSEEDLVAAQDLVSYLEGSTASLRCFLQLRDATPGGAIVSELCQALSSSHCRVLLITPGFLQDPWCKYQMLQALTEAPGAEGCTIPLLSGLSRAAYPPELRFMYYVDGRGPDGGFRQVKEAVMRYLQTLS
UniProt O60603: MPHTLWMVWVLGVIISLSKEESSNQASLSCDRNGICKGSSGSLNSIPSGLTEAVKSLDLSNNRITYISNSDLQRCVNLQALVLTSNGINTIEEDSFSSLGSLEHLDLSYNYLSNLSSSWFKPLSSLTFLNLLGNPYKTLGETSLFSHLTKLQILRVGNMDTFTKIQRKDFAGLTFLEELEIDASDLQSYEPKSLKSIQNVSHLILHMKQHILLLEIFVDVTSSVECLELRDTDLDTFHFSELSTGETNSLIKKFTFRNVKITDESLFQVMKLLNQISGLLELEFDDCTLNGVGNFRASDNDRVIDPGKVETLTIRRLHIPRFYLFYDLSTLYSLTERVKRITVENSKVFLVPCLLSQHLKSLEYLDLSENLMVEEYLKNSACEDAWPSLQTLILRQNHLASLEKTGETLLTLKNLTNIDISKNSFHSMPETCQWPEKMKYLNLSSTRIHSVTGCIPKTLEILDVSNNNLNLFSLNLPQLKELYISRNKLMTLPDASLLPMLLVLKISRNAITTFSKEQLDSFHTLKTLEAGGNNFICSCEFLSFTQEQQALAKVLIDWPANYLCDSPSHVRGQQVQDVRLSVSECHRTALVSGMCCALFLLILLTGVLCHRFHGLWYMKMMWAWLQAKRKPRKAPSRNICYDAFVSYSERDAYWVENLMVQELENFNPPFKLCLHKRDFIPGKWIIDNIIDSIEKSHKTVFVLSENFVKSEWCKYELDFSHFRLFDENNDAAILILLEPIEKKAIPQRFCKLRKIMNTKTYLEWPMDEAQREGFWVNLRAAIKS
UniProt Q86XR7: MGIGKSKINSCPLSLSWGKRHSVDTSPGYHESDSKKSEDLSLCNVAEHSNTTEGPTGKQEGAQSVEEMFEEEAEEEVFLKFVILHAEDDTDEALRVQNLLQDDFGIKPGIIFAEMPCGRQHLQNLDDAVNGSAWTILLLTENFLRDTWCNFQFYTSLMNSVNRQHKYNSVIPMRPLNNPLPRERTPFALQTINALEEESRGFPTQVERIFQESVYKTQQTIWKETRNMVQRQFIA
UniProt Q8IUC6: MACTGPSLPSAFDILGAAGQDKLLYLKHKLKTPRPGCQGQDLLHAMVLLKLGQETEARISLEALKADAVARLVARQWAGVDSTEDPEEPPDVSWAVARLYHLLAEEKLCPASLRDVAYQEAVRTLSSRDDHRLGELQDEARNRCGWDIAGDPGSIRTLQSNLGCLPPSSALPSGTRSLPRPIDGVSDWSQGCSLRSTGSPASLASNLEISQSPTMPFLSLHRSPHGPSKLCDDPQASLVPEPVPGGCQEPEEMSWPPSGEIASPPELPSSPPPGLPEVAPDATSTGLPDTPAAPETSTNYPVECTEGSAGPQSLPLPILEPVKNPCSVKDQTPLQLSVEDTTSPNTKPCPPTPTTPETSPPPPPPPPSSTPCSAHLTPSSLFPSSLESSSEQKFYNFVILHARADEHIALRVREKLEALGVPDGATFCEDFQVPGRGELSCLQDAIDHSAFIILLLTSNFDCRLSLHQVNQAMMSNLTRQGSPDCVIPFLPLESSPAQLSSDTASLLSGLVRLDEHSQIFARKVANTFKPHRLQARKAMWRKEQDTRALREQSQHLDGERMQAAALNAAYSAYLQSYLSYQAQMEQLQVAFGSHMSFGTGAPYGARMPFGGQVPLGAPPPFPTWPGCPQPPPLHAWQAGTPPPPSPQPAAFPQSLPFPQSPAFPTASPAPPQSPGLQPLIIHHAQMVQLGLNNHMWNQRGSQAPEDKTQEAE

These are yes or no findings as the source states them, for the method shown. Some results given as binding are weak or reduced against the parent protein; the word gives no strength. Sequences can lack the tags named with a protein.

The target in the assay is Omp25d fused with the GAL4 DNA-binding domain (pBD-Omp25d, bait) (B. neotomae) (UniProt Q64JB6). Put plainly: two-hybrid.

In the case of “MYD88 fused with the DNA activation domain (prey) (from UniProt Q99836 1-296)”, the binding entry was “no binding”.
Next, “TIRAP fused with the DNA activation domain (prey) (from UniProt P58753 1-221)”: “binds”; “TLR2 fused with the DNA activation domain (prey) (from UniProt O60603 1-784) (receptor)”: “binds”.
Next, “TRAM fused with the DNA activation domain (prey) (from UniProt Q86XR7 1-235)”: “binds”; “TRIF fused with the DNA activation domain (prey) (from UniProt Q8IUC6 1-712)”: “binds”.

B1: TLR9 fused with the DNA activation domain (prey) (receptor, UniProt Q9NR96 1-1032)
chain: MGFCRSALHPLSLLVQAIMLAMTLALGTLPAFLPCELQPHGLVNCNWLFLKSVPHFSMAAPRGNVTSLSLSSNRIHHLHDSDFAHLPSLRHLNLKWNCPPVGLSPMHFPCHMTIEPSTFLAVPTLEELNLSYNNIMTVPALPKSLISLSLSHTNILMLDSASLAGLHALRFLFMDGNCYYKNPCRQALEVAPGALLGLGNLTHLSLKYNNLTVVPRNLPSSLEYLLLSYNRIVKLAPEDLANLTALRVLDVGGNCRRCDHAPNPCMECPRHFPQLHPDTFSHLSRLEGLVLKDSSLSWLNASWFRGLGNLRVLDLSENFLYKCITKTKAFQGLTQLRKLNLSFNYQKRVSFAHLSLAPSFGSLVALKELDMHGIFFRSLDETTLRPLARLPMLQTLRLQMNFINQAQLGIFRAFPGLRYVDLSDNRISGASELTATMGEADGGEKVWLQPGDLAPAPVDTPSSEDFRPNCSTLNFTLDLSRNNLVTVQPEMFAQLSHLQCLRLSHNCISQAVNGSQFLPLTGLQVLDLSHNKLDLYHEHSFTELPRLEALDLSYNSQPFGMQGVGHNFSFVAHLRTLRHLSLAHNNIHSQVSQQLCSTSLRALDFSGNALGHMWAEGDLYLHFFQGLSGLIWLDLSQNRLHTLLPQTLRNLPKSLQVLRLRDNYLAFFKWWSLHFLPKLEVLDLAGNQLKALTNGSLPAGTRLRRLDVSCNSISFVAPGFFSKAKELRELNLSANALKTVDHSWFGPLASALQILDVSANPLHCACGAAFMDFLLEVQAAVPGLPSRVKCGSPGQLQGLSIFAQDLRLCLDEALSWDCFALSLLAVALGLGVPMLHHLCGWDLWYCFHLCLAWLPWRGRQSGRDEDALPYDAFVVFDKTQSAVADWVYNELRGQLEECRGRWALRLCLEERDWLPGKTLFENLWASVYGSRKTLFVLAHTDRVSGLLRASFLLAQQRLLEDRKDVVVLVILSPDGRRSRYVRLRQRLCRQSVLLWPHQPSGQRSFWAQLGMALTRDNHHFYNRNFCQGPTAE
As for B1, the binding entry is “binds”.
